# Experimental data published in PubChem BioAssay AID1347165 (National Center for Advancing Translational Sciences (NCATS), 2019).
# The campaign covered roughly 220,000 compounds. About 5,700 (2.6%) were called active. Inconclusive results, whose numbers are uncertain, are shown with a selection of clear calls. Calls follow the shape of the dose curve; as a rule, active = well fitted inhibition curve with a large enough effect; inconclusive = small, poorly fitted or top-dose-only effect; inactive = no such curve, though single readings can be large or run the other way. Potencies beside an inconclusive call are fits to weak or partial responses and may not hold up.
# Target: Lysine-specific demethylase 5B (Homo sapiens) (UniProt Q9UGL1)
# Chain of UniProt Q9UGL1 (Q9UGL1 whole entry, looked up): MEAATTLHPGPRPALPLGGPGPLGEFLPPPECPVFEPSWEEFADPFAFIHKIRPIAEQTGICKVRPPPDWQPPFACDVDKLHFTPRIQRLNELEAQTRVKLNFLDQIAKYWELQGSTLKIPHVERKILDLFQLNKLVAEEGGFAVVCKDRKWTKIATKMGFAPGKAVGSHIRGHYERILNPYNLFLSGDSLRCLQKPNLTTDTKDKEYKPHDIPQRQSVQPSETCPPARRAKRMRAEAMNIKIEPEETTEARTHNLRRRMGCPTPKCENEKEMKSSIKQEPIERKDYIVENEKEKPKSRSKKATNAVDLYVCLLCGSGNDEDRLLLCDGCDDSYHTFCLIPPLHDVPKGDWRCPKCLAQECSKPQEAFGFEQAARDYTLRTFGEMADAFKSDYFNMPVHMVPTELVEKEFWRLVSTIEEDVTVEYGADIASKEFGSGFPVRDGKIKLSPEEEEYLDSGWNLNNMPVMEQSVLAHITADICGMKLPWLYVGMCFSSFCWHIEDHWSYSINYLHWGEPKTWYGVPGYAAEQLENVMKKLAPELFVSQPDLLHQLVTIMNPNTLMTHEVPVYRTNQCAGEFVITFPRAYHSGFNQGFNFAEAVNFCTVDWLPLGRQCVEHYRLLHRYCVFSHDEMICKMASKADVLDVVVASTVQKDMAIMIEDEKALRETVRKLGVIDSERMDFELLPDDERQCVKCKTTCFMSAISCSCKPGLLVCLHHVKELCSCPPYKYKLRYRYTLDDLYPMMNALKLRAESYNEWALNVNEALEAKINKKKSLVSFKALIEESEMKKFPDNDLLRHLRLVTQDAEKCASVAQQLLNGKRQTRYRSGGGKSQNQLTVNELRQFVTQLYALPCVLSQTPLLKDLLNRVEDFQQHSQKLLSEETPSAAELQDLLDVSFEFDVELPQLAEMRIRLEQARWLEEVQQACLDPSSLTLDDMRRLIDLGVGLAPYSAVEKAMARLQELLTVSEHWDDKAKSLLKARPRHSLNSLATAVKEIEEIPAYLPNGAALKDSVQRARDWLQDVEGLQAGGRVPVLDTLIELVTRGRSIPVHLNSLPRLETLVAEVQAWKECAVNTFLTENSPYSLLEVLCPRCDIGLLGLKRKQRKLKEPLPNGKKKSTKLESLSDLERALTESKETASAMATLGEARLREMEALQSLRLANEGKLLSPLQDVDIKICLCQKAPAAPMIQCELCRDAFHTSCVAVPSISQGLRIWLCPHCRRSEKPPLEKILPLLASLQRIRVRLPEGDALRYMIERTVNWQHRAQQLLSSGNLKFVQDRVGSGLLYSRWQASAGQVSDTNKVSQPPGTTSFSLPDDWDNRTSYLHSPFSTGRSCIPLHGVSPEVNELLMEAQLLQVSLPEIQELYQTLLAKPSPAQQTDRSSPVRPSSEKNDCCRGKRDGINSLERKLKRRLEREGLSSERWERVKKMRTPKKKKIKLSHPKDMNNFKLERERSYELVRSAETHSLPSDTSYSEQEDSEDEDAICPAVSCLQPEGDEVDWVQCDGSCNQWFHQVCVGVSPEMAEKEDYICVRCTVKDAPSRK
# Experiment: Primary screen for KDM5B Histone Demethylases FDH-coupled qHTS; also: nearly all actives have a fitted effect of over 70% in size; as to activity change, negative = inhibition: 0% is about no effect
# Conditions: FDH-coupled NADH fluorescence (FDH is formaldehyde dehydrogenase); activity change, negative = inhibition: at 57.7 µM (top of the series) unless noted
# How it was run: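 Here, H3K4me3 peptide (12.5 µM in substrate mix) is demethylated by KDM5BΔAP, 200 nM final, after 10 min compound exposure. Formaldehyde product is coupled through FDH (0.25 U/mL in mix) to NADH fluorescence; 30-min ΔRFU feeds dose-response curves.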
# Potency is read from the fitted curve at half-maximal effect; tags tell the direction and shape of the fitted curve.
SMILES,Potency,"activity change, negative = inhibition"
CC1=C(C(=O)Nc2ccc(F)cc2F)C(c2ccc3c(c2)OCO3)C2=C(CC(C)(C)CC2=O)N1 (stereo unspecified),"inconclusive: 28.2 µM [inhibitor, partial curve, poor fit]",–
CCN(CC)CCOC(=O)c1ccc(NC(=O)CSc2cc(=O)n(CC)c3ccccc23)cc1,"inconclusive: 22.4 µM [inhibitor, single point]",–
COc1ccc(CO[C@H]2COCCN(c3nc4ccccc4s3)C2)cc1,–,inactive: -2.98% [at 86.2 µM]
Cc1ccc(-c2ccc(=O)n(CC(=O)Nc3ccc(C(C)C)cc3)n2)cc1,"inconclusive: 22.4 µM [inhibitor, single point]",–
C=CCOc1ccc(C2c3c(oc4ccc(C)cc4c3=O)C(=O)N2CCCN2CCOCC2)cc1 (stereo unspecified),"inconclusive: 1.58 µM [inhibitor, partial curve, poor fit]",–
Oc1ccc(-c2nc3ccccc3s2)cc1,"inconclusive: 25.1 µM [inhibitor, partial curve, poor fit]",–
CN(C)C[C@@H]1CN(S(C)(=O)=O)C[C@H]1NC(=O)c1nn(C)c2ccccc12,active: 28.2 µM,–
O=C1CC(C(=O)NCc2cc3n(n2)CCN(C2CCCCC2)C3)C2(CCCC2)O1 (stereo unspecified),"inconclusive: 25.1 µM [inhibitor, single point]",–
Cc1ccc(C(=O)NC2CCCN(c3cc(-c4ccccc4)[nH]n3)C2)cn1 (stereo unspecified),–,inactive: -27.8%
COc1cc(NC(=O)c2cc3ccccc3o2)ccc1NC(=O)c1ccccc1Cl,"inconclusive: 39.8 µM [inhibitor, single point]",–
COc1cc(C2NC(=O)c3c(sc4c3CCN(C)C4)N2)ccc1OC(=O)c1ccccc1 (stereo unspecified),"inconclusive: 15.8 µM [inhibitor, partial curve, poor fit]",–
COCCNC(=O)CS(=O)Cc1nc(-c2cccc(C)c2)oc1C (stereo unspecified),–,inactive: 18.7%
Cc1nn(C)cc1-c1ccn[nH]1,–,inactive: 19.8%
O=C(NCCC(c1ccccc1)c1ccccc1)NNc1ccccn1,"inconclusive: 17.8 µM [inhibitor, partial curve, poor fit]",–
COc1cccc(NC(=O)N2CCN(C(=O)c3nsc4ccccc34)CC2)c1,"inconclusive: 35.5 µM [inhibitor, single point]",–
Cc1cc(C(=O)NCC(F)(F)F)c2c(C3CCCN3)noc2n1 (stereo unspecified),active: 50.1 µM,–
O=C1CCC2(CCCO2)CCN1Cc1cccc(F)c1F (stereo unspecified),–,inactive: -21.7%
S=C1N[C@H]2CCCC[C@@H]2N1,–,inactive: 32.5%
CC(=O)Nc1ccc(Nc2ncnc3c2c(-c2ccccc2)cn3-c2ccc(C)c(Cl)c2)cc1,"inconclusive: 35.5 µM [inhibitor, partial curve, poor fit]",–
Cc1nn2c(c1-c1ccccc1C(C)C)N(C(=O)c1cnccn1)CCC2,–,inactive: 4.8% [at 86.2 µM]
CN1CC(=O)N(C2CCC2)Cc2c1ncnc2N1CCc2ccccc2C1,"inconclusive: 14.1 µM [inhibitor, partial curve]",–
Cc1ccc(-c2ccc3nnc(CNC(=O)Cc4ccccc4Cl)n3n2)cc1C,"inconclusive: 3.16 µM [inhibitor, single point]",–

SMILES,Potency,"activity change, negative = inhibition"
O=C(Cc1ccccc1F)NC1CCN(c2cc(-c3ccccc3)[nH]n2)CC1,"inconclusive: 25.1 µM [inhibitor, partial curve, poor fit]",–
c1cc2nnc(C3CCC3)n2nc1NCC1CCCO1 (stereo unspecified),"inconclusive: 28.2 µM [inhibitor, single point]",–
CCCOc1cccc(C(=O)Nc2ccc(-c3cc4ccccc4oc3=O)c(C)c2)c1,"inconclusive: 17.8 µM [inhibitor, partial curve, poor fit]",–
COc1ccccc1CC(=O)N1CCCN(CCc2ccccc2)c2ccccc21,"inconclusive: 14.1 µM [inhibitor, single point]",–
FC(F)(F)Oc1cccc(CN2CCC[C@H]2c2nc(-c3ccc(N4CCOCC4)nc3)no2)c1,active: 28.2 µM,–
CC1(C)CC(=O)CC(C)(C)N1,–,inactive: 21.6%
O=C(c1ccc(C(F)(F)F)cc1)N1CC(Oc2ccc3c(c2)OCO3)C1,"inconclusive: 44.7 µM [inhibitor, partial curve]",–
O=C(O)C(c1c(-c2ccccc2)[nH]c2ccccc12)N1CCN(Cc2cccnc2)CC1 (stereo unspecified),"inconclusive: 4.47 µM [inhibitor, partial curve, poor fit]",–
NC(=O)c1cc(-c2ccc(Br)cc2)nc2ccccc12,"inconclusive: 28.2 µM [inhibitor, single point]",–
COc1ccc(OC)c(NC(=O)Cn2cccc(-c3nc(-c4ccc(OC)c(OC)c4)no3)c2=O)c1,–,inactive: 12.3%
Cc1ccc(NC(=O)C2CCCN(c3cnccn3)C2)c(C)c1 (stereo unspecified),"inconclusive: 2.82 µM [inhibitor, full curve, poor fit]",–
O=C(NCc1ccccc1)C1CCN(c2cc(C(F)(F)F)ncn2)CC1,–,inactive: 11.2%
CC(C)Nc1nc(C(=O)Nc2ccccc2O)cs1,"inconclusive: 28.2 µM [inhibitor, single point]",–
O=C(Cc1cccc(O)c1)N1CC(CNc2ccccc2)C2(C1)CN(c1ccccc1)C2 (stereo unspecified),"inconclusive: 31.6 µM [inhibitor, single point]",–
Cc1ccc2c(c1)N1C(=O)OC[C@@H]1CCN(C(C)C)C2,"inconclusive: 35.5 µM [inhibitor, partial curve, poor fit]",–
N#Cc1cccc(NC(=O)O[C@@H]2CO[C@H]3[C@@H]2OC[C@@H]3n2nnnc2-c2ccc(-c3ccccc3)cc2)c1,"inconclusive: 8.91 µM [inhibitor, full curve]",–
CS(=O)(=O)N1CCN(C(C(=O)O)c2c[nH]c3ccc(NC(=O)CCC(=O)O)cc23)CC1 (stereo unspecified),"inconclusive: 22.4 µM [inhibitor, partial curve, poor fit]",–
O=C(CCC1CCCN(S(=O)(=O)c2ccccc2)C1)N1CCc2ccccc2C1 (stereo unspecified),active: 22.4 µM,–
O=C(O)[C@@H]1CN(Cc2ccccc2)C[C@@H]1C(=O)N1CCN(c2ccccn2)CC1,active: 22.4 µM,–
O=C(O)C(=O)/C(=C/c1ccsc1)c1ccc2ccccc2n1,"inconclusive: 15.8 µM [inhibitor, partial curve, poor fit]",–
CC(C)N1C(=O)[C@@H]2[C@@H](CCN2C(=O)CSCC(=O)O)N(Cc2cccc(F)c2)C1=O,"inconclusive: 20 µM [inhibitor, partial curve, poor fit]",–
COC(=O)c1ccc(NC(=O)c2c(C)oc3ccn(Cc4ccc(F)cc4)c(=O)c23)cc1,"inconclusive: 3.55 µM [inhibitor, partial curve, poor fit]",–

SMILES,Potency,"activity change, negative = inhibition"
COc1ccccc1OCCNC(=O)C1CC(=O)N(c2n[nH]c3cccc(F)c23)C1 (stereo unspecified),"inconclusive: 25.1 µM [inhibitor, single point]",–
CC(C)NC(=O)N1Cc2[nH]cnc2C[C@H]1C(=O)NCc1ccco1,"inconclusive: 28.2 µM [inhibitor, single point]",–
COc1cccc([S+](=O)([O-])N2CC(Oc3ccc4c(c3)OCO4)C2)c1,"inconclusive: 79.4 µM [inhibitor, partial curve]",–
CCc1cc(=O)oc2cc(OC(C)C(=O)NCc3cccnc3)ccc12 (stereo unspecified),"inconclusive: 20 µM [inhibitor, partial curve, poor fit]",–
CC(C)c1ccc2c(c1)-c1ccccc1S(=O)(=O)N2CC(=O)NCc1ccncc1,–,inactive: -23.5%
N#CCOc1ccc2c(=O)c(-c3ccc(Br)cc3)c(C(F)(F)F)oc2c1,–,inactive: -13%
CCc1cccc(NC(=O)N2CCC(OC3CCN(Cc4ccccc4)CC3)CC2)c1,–,inactive: -12%
COc1cc(C(C)NCc2csc(C(C)C)n2)ccc1OCCO (stereo unspecified),–,inactive: 23.3%
CCOc1ccccc1CNC(=O)c1ccc(Cn2c(SCc3ccccc3)nc3cccnc32)cc1,"inconclusive: 31.6 µM [inhibitor, partial curve, poor fit]",–
CC(C)c1nnc2sc(-c3ccc4c(c3)OCO4)nn12,"inconclusive: 28.2 µM [inhibitor, partial curve, poor fit]",–
COCCc1nc(CNC(=O)C(c2cccc(F)c2)N(C)C)no1 (stereo unspecified),active: 22.4 µM,–
N#Cc1ccc(-c2csc(-c3ccsc3)n2)cc1,"inconclusive: 25.1 µM [inhibitor, partial curve, poor fit]",–
Cc1cc(C)c2nc(NC(=O)c3ccc(S(=O)(=O)N4CCC(C)CC4)cc3)sc2c1,"inconclusive: 31.6 µM [inhibitor, partial curve, poor fit]",–
Cc1ccc(CNC(=O)c2ccc(-c3ccc(N4CCCCC4)nc3)cc2)o1,active: 20 µM,–
Cc1ccc(Cn2c(C3CCN(C(=O)c4ccc(C#N)cc4)CC3)n[nH]c2=O)cc1,"inconclusive: 35.5 µM [inhibitor, partial curve, poor fit]",–
CCC1(N2CCN(C(=O)NCc3cccc(F)c3)CC2)CCN(C(=O)C(C)C)C1 (stereo unspecified),"inconclusive: 39.8 µM [inhibitor, single point]",–
O=C(Nc1ccccc1)c1nc2c(o1)CCN(Cc1ccc(F)cc1)CC2,"inconclusive: 25.1 µM [inhibitor, partial curve, poor fit]",–
CCCCOC(=O)c1ccc(NC(=O)COc2ccc3c(C)cc(=O)oc3c2)cc1,"inconclusive: 25.1 µM [inhibitor, partial curve, poor fit]",–
O=S(=O)(Nc1nc2ccccc2nc1N1CCCC1)c1ccc(F)cc1,–,inactive: -5.34%
COC(=O)COc1cccc2c1OCCO2,–,inactive: 16.4%
N#CCCCCOC(=O)c1ccc(Oc2ccc(C(=O)OCCCCC#N)cc2)cc1,–,inactive: -16%
CCOc1cc(C2Sc3ccccc3NC3=C2C(=O)c2ccccc23)ccc1O (stereo unspecified),"inconclusive: 31.6 µM [inhibitor, single point]",–
